# Some of the results follow. One pool of 16,384 single-stranded DNAs met each Rep nickase domain in vitro at 3 µM enzyme and 37 °C for 1 h; the strands have 90 letters, of which the middle is given. Values are log2 of uncut reads against the no-enzyme pool; the lower, the more was cut; hits are not called. Reads are scaled to the total; where an enzyme cuts many sequences, the uncut ones exceed 0.
# Assays:
# Test in all cases: uncleaved DNA left, log2 of reads against the no-enzyme library (log2 ratio); higher = less cleavage (more negative = more Rep cleavage of the k-mer); sequences stand for … in CTCGTCCG…ACCGGAGA
# [1] = system: T1, Rep nickase domain of Muscovy duck circovirus
# T1 sequence (residues 1-111 of Rep, tag left off): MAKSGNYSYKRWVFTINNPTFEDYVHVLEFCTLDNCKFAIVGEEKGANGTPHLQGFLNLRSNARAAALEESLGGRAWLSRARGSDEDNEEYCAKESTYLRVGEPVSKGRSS
# Procedure: (§1)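 A pool of 90-nt single-stranded DNAs with seven random bases just before the constant AC of the nick site (name = the seven bases) was cut by 3 µM recombinant His6-SUMO-tagged Rep nickase domain (300 nM DNA, 50 mM HEPES pH 8.0, 50 mM NaCl, 1 mM MnCl2, 1 h, 37 °C, three replicates). Uncut DNA was amplified and sequenced.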
# [2] = system: T2, Rep nickase domain of banana bunchy top virus
# T2 sequence (residues 1-94 of Rep, tag left off): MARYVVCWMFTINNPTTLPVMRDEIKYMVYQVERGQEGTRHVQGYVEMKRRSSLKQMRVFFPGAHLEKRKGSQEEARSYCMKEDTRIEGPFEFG
# Procedure: as §1
# [3] = system: T3, Rep nickase domain of cabbage leaf curl virus
# T3 sequence (residues 1-116 of Rep, tag left off): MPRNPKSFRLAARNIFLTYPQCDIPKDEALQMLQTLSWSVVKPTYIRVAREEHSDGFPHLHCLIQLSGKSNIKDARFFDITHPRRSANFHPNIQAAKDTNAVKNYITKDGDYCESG
# Procedure: as §1
# [4] = system: T4, Rep nickase domain of chickpea chlorotic dwarf virus
# T4 sequence (residues 1-124 of Rep, tag left off): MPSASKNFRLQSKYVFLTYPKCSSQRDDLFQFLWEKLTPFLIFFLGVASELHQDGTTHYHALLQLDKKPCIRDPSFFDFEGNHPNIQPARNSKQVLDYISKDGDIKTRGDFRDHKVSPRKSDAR
# Procedure: as §1
# [5] = system: T5, Rep nickase domain of faba bean necrotic yellows virus
# T5 sequence (residues 1-98 of Rep, tag left off): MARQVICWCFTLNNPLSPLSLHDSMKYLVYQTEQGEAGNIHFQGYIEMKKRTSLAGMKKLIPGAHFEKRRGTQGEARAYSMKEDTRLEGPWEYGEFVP
# Procedure: as §1
# [6] = system: T6, Rep nickase domain of maize striate mosaic virus
# T6 sequence (residues 1-117 of Rep, tag left off): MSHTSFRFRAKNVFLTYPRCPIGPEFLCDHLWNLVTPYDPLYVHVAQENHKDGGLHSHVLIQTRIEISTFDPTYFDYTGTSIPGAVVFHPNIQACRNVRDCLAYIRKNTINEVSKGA
# Procedure: as §1
# [7] = system: T7, Rep nickase domain of porcine circovirus 2
# T7 sequence (residues 2-116 of Rep, tag left off): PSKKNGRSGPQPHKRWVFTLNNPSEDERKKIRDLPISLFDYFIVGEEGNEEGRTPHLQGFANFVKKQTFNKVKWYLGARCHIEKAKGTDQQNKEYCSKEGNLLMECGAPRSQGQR
# Procedure: as §1
# [8] = system: T8, Rep nickase domain of tomato golden mosaic virus
# T8 sequence (residues 1-124 of Rep, tag left off): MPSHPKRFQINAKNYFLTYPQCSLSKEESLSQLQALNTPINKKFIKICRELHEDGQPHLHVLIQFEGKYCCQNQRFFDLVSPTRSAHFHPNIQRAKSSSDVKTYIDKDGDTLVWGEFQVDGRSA
# Procedure: as §1
# [9] = system: T9, Rep nickase domain of tomato yellow leaf curl virus
# T9 sequence (residues 1-136 of Rep, tag left off): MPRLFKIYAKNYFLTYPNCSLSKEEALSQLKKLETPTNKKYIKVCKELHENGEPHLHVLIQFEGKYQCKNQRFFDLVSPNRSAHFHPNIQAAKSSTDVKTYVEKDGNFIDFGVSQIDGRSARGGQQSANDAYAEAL
# Procedure: as §1
# [10] = system: T10, Rep nickase domain of wheat dwarf virus
# T10 sequence (residues 1-137 of Rep, tag left off): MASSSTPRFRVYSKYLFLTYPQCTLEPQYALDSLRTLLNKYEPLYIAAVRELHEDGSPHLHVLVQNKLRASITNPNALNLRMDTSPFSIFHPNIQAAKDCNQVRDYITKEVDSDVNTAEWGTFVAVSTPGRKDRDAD
# Procedure: as §1
Sequence,uncleaved DNA left (log2) [1],uncleaved DNA left (log2) [2],uncleaved DNA left (log2) [3],uncleaved DNA left (log2) [4],uncleaved DNA left (log2) [5],uncleaved DNA left (log2) [6],uncleaved DNA left (log2) [7],uncleaved DNA left (log2) [8],uncleaved DNA left (log2) [9],uncleaved DNA left (log2) [10]
ATGAGGA,0.157,0.0225,0.215,0.552,0.025,-0.16,0.172,0.132,-0.0605,0.0253
GTTCCGG,0.00986,0.0998,0.561,1.53,-0.0477,2.12,0.16,0.0927,-0.0452,0.0645
AGCAGTT,0.165,0.0606,0.0297,-0.655,0.00255,0.432,-0.332,0.121,-0.00458,0.114
GGCATAC,0.0632,0.0518,0.668,1.51,0.0889,2.03,0.215,0.0558,0.0727,0.133
CGACAAA,0.0437,0.0356,0.0702,0.643,0.0459,0.917,0.106,0.0329,-0.0403,0.0857
CCCAGTA,0.00909,0.14,0.102,-0.991,0.148,-0.619,0.15,-0.0183,0.113,-0.0499
CTAACCC,-0.388,0.0561,-0.332,-1.56,-0.0196,-0.509,-0.964,-0.171,-0.173,0.00155
GGCTTTC,0.022,-0.032,0.523,1.12,-0.162,1.79,0.0432,-0.0211,0.0875,0.0464
CAAGCTC,0.0849,0.0412,-0.0795,0.385,-0.168,0.824,0.102,-0.089,-0.0807,0.0159
TAAGACG,0.133,0.144,-0.432,-0.606,0.103,-0.885,0.204,0.0605,0.0285,0.0825
GCTTCCT,-0.125,-0.0154,0.0765,-1.07,-0.0408,0.224,-0.583,-0.124,-0.0372,0.0771
ATTCATC,0.0805,0.111,0.0888,0.0125,-0.0458,-0.491,0.0568,-0.0191,0.0393,0.0801
AAGATCG,0.125,0.0619,-0.67,-0.433,0.145,-0.833,0.289,0.00569,0.139,-0.0805
ACTTGAG,-0.0899,-0.0289,-0.548,0.636,0.00647,-0.0302,0.13,-0.0943,0.0824,-0.0895
AACCTGA,0.174,0.0528,0.272,0.179,0.145,0.83,0.0817,0.191,-0.0356,0.131
GGTCTGG,0.0294,0.0686,0.495,0.939,0.00179,1.12,0.2,0.0837,0.149,0.126
AACGTCC,-0.132,-0.0264,-0.263,-0.522,-0.123,-0.657,-0.217,-0.169,-0.083,-0.106
AAGTTGC,0.000224,0.0263,-0.714,-0.481,0.0412,-1.2,-0.0212,0.0217,0.061,-0.0596
AACTAAA,-0.0708,0.00665,-0.0707,-0.881,0.0703,-0.448,-1.42,0.0685,-0.02,0.0142
TAGTGCT,-3.13,-3.35,-2.91,-3.05,-2.99,-1.9,-4.07,-0.738,0.0575,-0.286
GGCAATC,0.0844,0.0817,0.516,1.47,0.000615,1.84,0.205,-0.0305,0.0647,0.112
GAACGAC,-0.0655,0.0534,0.281,0.612,0.0302,0.642,0.181,0.00508,-0.0207,0.0578
GGCATCC,0.019,0.0414,0.642,1.41,0.0295,1.91,0.0325,-0.137,-0.0277,0.167
TTTTAAA,0.128,0.161,0.354,0.305,0.203,0.403,0.139,0.278,0.205,0.153
CCACTCC,-0.18,-0.123,-0.0652,-0.0541,-0.105,0.451,-0.0912,-0.0846,-0.0558,-0.163
ATGGATG,0.00114,-0.0543,-0.0017,0.601,0.0931,0.048,0.108,-0.03,-0.0164,0.0483
ATAGCAC,0.129,0.0437,-0.111,-0.416,0.0409,-0.856,0.183,0.0564,0.173,0.0816
GATGGAA,0.0878,0.0489,0.508,1.12,-0.00306,1.49,0.146,0.038,0.0224,0.0839
TAGAATG,0.0349,-0.0644,-0.136,0.49,-0.0206,1.12,-0.044,-0.0551,-0.22,-0.00572
GCCCATC,0.0692,0.0243,0.16,0.603,-0.0284,0.0903,0.0835,0.0169,0.0578,-0.112
